In all, about 81,000 sequences were measured (“one-hybrid fitness for binding parS DNA”: median about -0.17, highest 2% from about 0.51 on). This is one part of the list.
B1: Caulobacter ParB omega fusion; a variant is named by its letters at X, in order, B8GW30 (parent)
chain: MESVVVGEPGMSEGRRGLGRGLSALLGEVDAAPAQAPGEQLGGSREAPIEILQRNPDQPRRTFREEDLEDLSNSIREKGVLQPILVRPSPDTAGEYQIVAGERAWRAAQRAGLKTVPIMVRELDDLAVLEIGIIENVQRADLNVLEEALSYKVLMEKFERTQENIAQTIGKSXSHVANXMRLLXLPDEVQSYLVSGELTAXHARAIAAAADPVALAKQIIEGGLSVRETEALARKAPNLSAGKSKGGRPPRVKDTDTQALESDLSSVLGLDVSIDHRGSTGTLTITYATLEQLDDLCNRLTRGI

Variants of: B1
Assay: one-hybrid fitness for binding parS DNA (scaled: cognate 1, non-cognate 0); higher = stronger binding
Settings: with parS DNA site
Summary of the method: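 On M9-minus-histidine containing 0.1 mM IPTG and 5 mM 3-AT, E. coli USO cells with a HIS3 reporter, site 19 bp from the promoter, grew 48 hours at 37°C to select Caulobacter ParB libraries randomised at four specificity codons. Plasmids from before and after were Illumina-sequenced, with three replicate libraries pooled and variants under 10 reads left out. Fitness is the log change in variant-to-wild-type read ratio, rescaled against cognate and non-cognate.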

one-hybrid fitness for binding parS DNA, 0.207:
FRDI

one-hybrid fitness for binding parS DNA, 1.01:
RMAG

one-hybrid fitness for binding parS DNA, ≤ 0.2:
GQYG
MVDL
EQCS
NVRV
KCNF
VLRL
VDIF
PMSV
CSCS
PTYP
RHQR
ERAY
SARG
HPYV
IVNI
VGVC
LCFC
FHPL
FLPE
PMTL
NLQL
EQTT
REVR
EGFR
CAQS
IGRG
VSFS
MRWS
MSLG
LELV
NNYT
QKVM
RDEV
YGYL
QQSH
FVNL
PTSQ
QRTN
KQQV
LGLT
DTPA
NTDY
PGTW
EMRG
DVYS
HVQY
PRWD
AGRT
FLVL
CSMG
GLEV
ESFT
IRIR
SGAD
TNHC
TAGS
TRLG
ICAT
RQEL
VHRV
HSRL
NNTH
AKAG
GKSS
ERCR
QSTN
QPQV
SRGM
LTAG
HGNA
EPAR
SPAS
IVDV
QVNN
LFNG
RWHL
HDRA
IDRS
LVTS
QLSC
DPPM
PIHS
VLHC
QRWR
GDQG
YLHG
TKQT
SVIG
RQPM
NPVN
SSTP
KQPM
PSLT
HCDC
TRTR
PGTL
MMNG
YDLT
AYVS
SRKD
TRRY
TTNT
KHGY
YLFW
AAQF
NLRI
PSLS
PMRW
KRKQ
IISN
PCHV
IAKG
KVLL
EAYS
FVHN
TMHC
ELEL
LINT
RYGL
QFAE
CVET
MGKP
EGLR
YYND
MENT
QCED
NEVR
LYKT
QSRI
GDTS
QMQR
TWAL
GDEL
RVKE
HVGG
RKQQ
IMGG
WSNG
NYSQ
GPMW
WFAY
KLYW
IWKR
SEMT
HCHT
PVNF
IIRR
QVDY
TAPG
SFAC
QFAW
TARL
HTSW
ERGS
QRTH
EVWI
MKYS
DINW
SRYG
LPWG
CPCR
PAKW
YKAA
QCSN
QISY
PQTP
LHAV
HYCG
EKGS
NSCR
LHRL
QAEI
GQTS
NWSC
SSPV
RYKP
GLSR
PIAQ
QTGE
EFPY
WERL
PGCR
LYKH
HISM
RNAR
NVTM
VNRM
RSMD
HQYT
EATE
WWTD
LPVS
IVEA
KRWG
QSVF
TPTD
IAIS
PHYS
WLQR
VRKF
WIGT
KYKR
TRHN
KPSF
SINQ
DNQE
ILTM
TLFV
TRYM
QAHC
FQDG
RSSD
APHC
CGTN
VATK
DNRT
GNTQ
HDKR
RLHP
HVVE
TGGR
TIWG
HQSR
VTMW
YSVV
KCSD
SKPM
QHKG
HEHR
TGID
MGLM
HQLL
DPAM
SLSW
RCHR
VFKS
AVNH
HPCK
HAPI
KEIA
VLHT
TAQP
SADW
KIAC
QVMS
DTTC
TPFR
HGAG
EVFT
IPHG
HAFN
NTHS
DPTA
PWGT
RNCD
QLLI
LRCW
VDHR
SVSS
NVND
YMQT
DAHP
TCTE
TLTF
RKMQ
SQFS
ATTI
YARR
CHLE
AARC
WYGL
RAVK
MCGR
SYPC
QKLK
GNND
INAK
ASGA
WNTP
SGCI
WAYS
YVER
HPTN
DSCC
TQHP
FRRH
NETN
PAYI

one-hybrid fitness for binding parS DNA, 0.976:
RFAS

one-hybrid fitness for binding parS DNA, 0.372:
RLLM

one-hybrid fitness for binding parS DNA, 0.592:
RRRH

one-hybrid fitness for binding parS DNA, 1:
RSNG

one-hybrid fitness for binding parS DNA, 0.368:
HRHS

one-hybrid fitness for binding parS DNA, 0.972:
RVHS

one-hybrid fitness for binding parS DNA, 0.834:
RKNA

one-hybrid fitness for binding parS DNA, 0.223:
RCCP

one-hybrid fitness for binding parS DNA, 0.793:
RYKS

one-hybrid fitness for binding parS DNA, 0.97:
RFSG

one-hybrid fitness for binding parS DNA, 0.205:
IHKE

one-hybrid fitness for binding parS DNA, 0.428:
RHLY

one-hybrid fitness for binding parS DNA, 0.237:
RACW

one-hybrid fitness for binding parS DNA, 0.456:
RSFY

one-hybrid fitness for binding parS DNA, 0.451:
RIEA
RVGN

Reference: a collection of fitness landscapes (doi:10.1016/j.celrep.2020.107928)
